# Experimental data as given in the supplement of paper PMC10037445.
# Several values for one entry are separate records, joined by “and”; a condition that tells them apart may be missing. Equal values may be shown once. In all, about 2,900 compounds were measured (“NF-kB SEAP reporter activity, fold change vs agonist alone”: median about 0.99, highest 2% from about 2.6 on). This is one part of the list.
# What was measured:
# RAW-Dual [1] = experiment: NF-kB SEAP reporter activity, fold change vs agonist alone; higher = enhanced NF-kB activity; settings: library stock concentration (final ~1000-fold dilution): 10 mM, cytotoxicity flag (confluency mask): not cytotoxic
# Method in brief: (§1)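 After 50 nL of library stock was delivered by pin tool to RAW-Dual macrophages (50,000 cells/well, DMEM, 384-well plates), a PRR agonist was added 1 h later and the plates were kept at 37 °C, 5% CO2. Twenty hours later, IRF was read from supernatant by QuantiLuc luminescence and NF-κB by QuantiBlue absorbance at 620 nm. Reporter activity is stated as fold change over agonist-alone wells. Wells with IncuCyte confluency under 70% of agonist controls in both mask sets were counted as cytotoxic.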
# RAW-Dual [2] = experiment: NF-kB SEAP reporter activity, fold change vs agonist alone; cytotoxicity flag (confluency mask): not cytotoxic; higher = enhanced NF-kB activity
# Method in brief: as §1
# [3] = agonist: ODN 1826 (TLR9) 0.5 ug/mL
# [4] = agonist: Pam2CSK4 (TLR2/6) 0.1 ug/mL
# [5] = agonist: Pam3CSK4 (TLR2/1) 0.1 ug/mL
smiles,measurement,setting,value
Cn1c(Nc2ccc(C(F)(F)F)cc2)nc2cc(Oc3ccnc(-c4ncc(C(F)(F)F)[nH]4)c3)ccc21,NF-kB SEAP reporter activity,RAW-Dual [1]; agonist: Imiquimod (TLR7) […],0.103
same,NF-kB SEAP reporter activity,RAW-Dual [1]; agonist: MPLA (TLR4) […],0.11
Cn1c(Nc2ccc(C(F)(F)F)cc2)nc2cc(Oc3ccnc(-c4ncc(C(F)(F)F)[nH]4)c3)ccc21 (library stock concentration (final ~1000-fold dilution): 10 mM),NF-kB SEAP reporter activity,RAW-Dual [2]; agonist: LPS (TLR4) 0.1 ug/mL,0.249
same,NF-kB SEAP reporter activity,RAW-Dual [2]; [3],0.146
same,NF-kB SEAP reporter activity,RAW-Dual [2]; [4],0.101
same,NF-kB SEAP reporter activity,RAW-Dual [2]; [5],0.158
COC1OC(CO)C(O)C(O)C1O (stereo not given) (library stock concentration (final ~1000-fold dilution): 10 mM),NF-kB SEAP reporter activity,RAW-Dual [2]; agonist: LPS (TLR4) 0.1 ug/mL,1.06
same,NF-kB SEAP reporter activity,RAW-Dual [2]; [3],1
same,NF-kB SEAP reporter activity,RAW-Dual [2]; [4],1.09
same,NF-kB SEAP reporter activity,RAW-Dual [2]; [5],1.02
COC1OC(CO)C(O)C(O)C1O (stereo not given),NF-kB SEAP reporter activity,RAW-Dual [1]; agonist: MPLA (TLR4) […],1.07
CC(C)CC(C=O)NC(=O)C(CC(C)C)NC(=O)C(CC(C)C)NC(=O)OCc1ccccc1 (stereo not given),NF-kB SEAP reporter activity,RAW-Dual [1]; agonist: Imiquimod (TLR7) […],0.958
same,NF-kB SEAP reporter activity,RAW-Dual [1]; agonist: MPLA (TLR4) […],0.952
CC(C)CC(C=O)NC(=O)C(CC(C)C)NC(=O)C(CC(C)C)NC(=O)OCc1ccccc1 (stereo not given) (library stock concentration (final ~1000-fold dilution): 10 mM),NF-kB SEAP reporter activity,RAW-Dual [2]; agonist: LPS (TLR4) 0.1 ug/mL,0.47
same,NF-kB SEAP reporter activity,RAW-Dual [2]; [3],0.967
same,NF-kB SEAP reporter activity,RAW-Dual [2]; [4],1.13
same,NF-kB SEAP reporter activity,RAW-Dual [2]; [5],0.768
COc1cc2ncnc(Nc3cccc(Cl)c3F)c2cc1OC(=O)N1CCN(C)CC1C (stereo not given) (library stock concentration (final ~1000-fold dilution): 10 mM),NF-kB SEAP reporter activity,RAW-Dual [2]; agonist: LPS (TLR4) 0.1 ug/mL,1.19
same,NF-kB SEAP reporter activity,RAW-Dual [2]; [3],0.84
same,NF-kB SEAP reporter activity,RAW-Dual [2]; [4],1.19
same,NF-kB SEAP reporter activity,RAW-Dual [2]; [5],1.1
COc1cc2ncnc(Nc3cccc(Cl)c3F)c2cc1OC(=O)N1CCN(C)CC1C (stereo not given),NF-kB SEAP reporter activity,RAW-Dual [1]; agonist: Imiquimod (TLR7) […],0.868
same,NF-kB SEAP reporter activity,RAW-Dual [1]; agonist: MPLA (TLR4) […],1.05
NCc1c[nH]c(=S)n1C1CCc2c(F)cc(F)cc2C1 (stereo not given),NF-kB SEAP reporter activity,RAW-Dual [1]; agonist: MPLA (TLR4) […],0.992
NCc1c[nH]c(=S)n1C1CCc2c(F)cc(F)cc2C1 (stereo not given) (library stock concentration (final ~1000-fold dilution): 10 mM),NF-kB SEAP reporter activity,RAW-Dual [2]; agonist: LPS (TLR4) 0.1 ug/mL,0.897
same,NF-kB SEAP reporter activity,RAW-Dual [2]; [3],0.9
same,NF-kB SEAP reporter activity,RAW-Dual [2]; [4],0.899
same,NF-kB SEAP reporter activity,RAW-Dual [2]; [5],0.617
CC(=O)SCC(Cc1ccccc1)C(=O)NCC(=O)OCc1ccccc1 (stereo not given) (library stock concentration (final ~1000-fold dilution): 10 mM),NF-kB SEAP reporter activity,RAW-Dual [2]; agonist: LPS (TLR4) 0.1 ug/mL,0.85
same,NF-kB SEAP reporter activity,RAW-Dual [2]; [3],0.956
same,NF-kB SEAP reporter activity,RAW-Dual [2]; [4],1.05
same,NF-kB SEAP reporter activity,RAW-Dual [2]; [5],1.15
CC(=O)SCC(Cc1ccccc1)C(=O)NCC(=O)OCc1ccccc1 (stereo not given),NF-kB SEAP reporter activity,RAW-Dual [1]; agonist: Imiquimod (TLR7) […],0.87
same,NF-kB SEAP reporter activity,RAW-Dual [1]; agonist: MPLA (TLR4) […],0.984
CC1COc2c(N3CCN(C)CC3)c(F)cc3c(=O)c(C(=O)O)cn1c23 (stereo not given) (library stock concentration (final ~1000-fold dilution): 10 mM),NF-kB SEAP reporter activity,RAW-Dual [2]; agonist: LPS (TLR4) 0.1 ug/mL,1.22 and 1.28
same,NF-kB SEAP reporter activity,RAW-Dual [2]; [3],0.963 and 1.11
same,NF-kB SEAP reporter activity,RAW-Dual [2]; [4],1.1 and 1.11
same,NF-kB SEAP reporter activity,RAW-Dual [2]; [5],1.12 and 1.19
Cc1n[nH]c2ncc(C(=O)N3CCCC3c3ccc(Cl)cc3)cc12 (stereo not given) (library stock concentration (final ~1000-fold dilution): 10 mM),NF-kB SEAP reporter activity,RAW-Dual [2]; agonist: LPS (TLR4) 0.1 ug/mL,2.51
same,NF-kB SEAP reporter activity,RAW-Dual [2]; [3],2.07
same,NF-kB SEAP reporter activity,RAW-Dual [2]; [4],1.61
same,NF-kB SEAP reporter activity,RAW-Dual [2]; [5],2.59
Cc1n[nH]c2ncc(C(=O)N3CCCC3c3ccc(Cl)cc3)cc12 (stereo not given),NF-kB SEAP reporter activity,RAW-Dual [1]; agonist: Imiquimod (TLR7) […],1.44
same,NF-kB SEAP reporter activity,RAW-Dual [1]; agonist: MPLA (TLR4) […],1.77
Cl.NCc1ccc(S(N)(=O)=O)cc1 (library stock concentration (final ~1000-fold dilution): 10 mM),NF-kB SEAP reporter activity,RAW-Dual [2]; agonist: LPS (TLR4) 0.1 ug/mL,0.838
same,NF-kB SEAP reporter activity,RAW-Dual [2]; [3],0.949
same,NF-kB SEAP reporter activity,RAW-Dual [2]; [4],1.02
same,NF-kB SEAP reporter activity,RAW-Dual [2]; [5],0.951
Cl.NCc1ccc(S(N)(=O)=O)cc1,NF-kB SEAP reporter activity,RAW-Dual [1]; agonist: Imiquimod (TLR7) […],0.942
same,NF-kB SEAP reporter activity,RAW-Dual [1]; agonist: MPLA (TLR4) […],1
CC12CCC3c4ccc(O)cc4CC(CCCCCCCCCS(=O)CCCC(F)(F)C(F)(F)F)C3C1CCC2O (stereo not given),NF-kB SEAP reporter activity,RAW-Dual [1]; agonist: Imiquimod (TLR7) […],0.89
same,NF-kB SEAP reporter activity,RAW-Dual [1]; agonist: MPLA (TLR4) […],0.904
CC12CCC3c4ccc(O)cc4CC(CCCCCCCCCS(=O)CCCC(F)(F)C(F)(F)F)C3C1CCC2O (stereo not given) (library stock concentration (final ~1000-fold dilution): 10 mM),NF-kB SEAP reporter activity,RAW-Dual [2]; agonist: LPS (TLR4) 0.1 ug/mL,0.714
same,NF-kB SEAP reporter activity,RAW-Dual [2]; [3],0.721
same,NF-kB SEAP reporter activity,RAW-Dual [2]; [4],0.634
same,NF-kB SEAP reporter activity,RAW-Dual [2]; [5],0.864
OCC1OC(c2ccc(F)c(Cc3cc4ccccc4s3)c2)C(O)C(O)C1O (stereo not given),NF-kB SEAP reporter activity,RAW-Dual [1]; agonist: Imiquimod (TLR7) […],1.06
same,NF-kB SEAP reporter activity,RAW-Dual [1]; agonist: MPLA (TLR4) […],1.04
OCC1OC(c2ccc(F)c(Cc3cc4ccccc4s3)c2)C(O)C(O)C1O (stereo not given) (library stock concentration (final ~1000-fold dilution): 10 mM),NF-kB SEAP reporter activity,RAW-Dual [2]; agonist: LPS (TLR4) 0.1 ug/mL,1.07
same,NF-kB SEAP reporter activity,RAW-Dual [2]; [3],0.948
same,NF-kB SEAP reporter activity,RAW-Dual [2]; [4],1.15
same,NF-kB SEAP reporter activity,RAW-Dual [2]; [5],1.17
CC(C)=CCC[C@](C)(O[C@@H]1O[C@H](CO[C@@H]2O[C@H](CO)[C@@H](O)[C@H](O)[C@H]2O)[C@@H](O)[C@H](O)[C@H]1O)[C@H]1CC[C@]2(C)[C@@H]1[C@H](O)C[C@@H]1[C@@]3(C)CC[C@H](O[C@@H]4O[C@H](CO)[C@@H](O)[C@H](O)[C@H]4O[C@@H]4O[C@H](CO)[C@@H](O)[C@H](O)[C@H]4O)C(C)(C)[C@@H]3CC[C@]12C,NF-kB SEAP reporter activity,RAW-Dual [1]; agonist: Imiquimod (TLR7) […],0.765
same,NF-kB SEAP reporter activity,RAW-Dual [1]; agonist: MPLA (TLR4) […],0.931
CC(C)=CCC[C@](C)(O[C@@H]1O[C@H](CO[C@@H]2O[C@H](CO)[C@@H](O)[C@H](O)[C@H]2O)[C@@H](O)[C@H](O)[C@H]1O)[C@H]1CC[C@]2(C)[C@@H]1[C@H](O)C[C@@H]1[C@@]3(C)CC[C@H](O[C@@H]4O[C@H](CO)[C@@H](O)[C@H](O)[C@H]4O[C@@H]4O[C@H](CO)[C@@H](O)[C@H](O)[C@H]4O)C(C)(C)[C@@H]3CC[C@]12C (library stock concentration (final ~1000-fold dilution): 10 mM),NF-kB SEAP reporter activity,RAW-Dual [2]; agonist: LPS (TLR4) 0.1 ug/mL,0.674
same,NF-kB SEAP reporter activity,RAW-Dual [2]; [3],0.489
same,NF-kB SEAP reporter activity,RAW-Dual [2]; [4],0.243
same,NF-kB SEAP reporter activity,RAW-Dual [2]; [5],0.457
CCCC(=O)OCOC(=O)C1=C(C)NC(C)=C(C(=O)OC)C1c1cccc(Cl)c1Cl (stereo not given),NF-kB SEAP reporter activity,RAW-Dual [1]; agonist: Imiquimod (TLR7) […],1.02
same,NF-kB SEAP reporter activity,RAW-Dual [1]; agonist: MPLA (TLR4) […],0.958
